# According to publication PMC12040169 (PLOS Biology, 2025):
# The other results are listed elsewhere or left out.
# Tested on: T1, C. trachomatis L2/434/Bu expressing GFP (CTL2-GFP)
# T1 construct: L2/434/Bu GFP intracellular growth in HeLa cells
# Design: species or system HeLa; C. trachomatis total inclusion area by high-content imaging, normalised to DMSO
# Settings: total inclusion area; 28.5 h, 10 µM; inhibitor
# Summary of the method: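 Post-fluorescence-read fixation, DNA staining with Hoechst and high-content imaging; GFP inclusion area and number per well, and nuclei counts, used as proxies for bacterial growth and host viability.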
row,SMILES,% of control remaining
1,O=C(Nc1ccc(-c2ccoc2)cc1C(=O)O)OCc1ccc([N+](=O)[O-])cc1 [CBK000141D],92.3873
2,CC(=O)N(C)c1ncc(Br)cc1C(=O)N(C)C [CBK076533],117.592
3,Cc1nccn1CCC(=O)NCCc1ccc(N(C)C)cc1 [CBK281954],107.345
4,COCCn1ccnc1C1CCN(C(=O)COc2cccc(F)c2)CC1 [CBK307362],79.2884
5,O=C(O)c1ccc(-c2n[nH]c(=O)c3c2CCCC3)cc1 [CBK287868],106.08
6,Cc1nnc2n1-c1ccccc1SC(c1ccccc1)C2 (stereo not drawn) [CBK016040],105.127
7,CC(C)(C)c1cc(CN2CCN(c3ccccn3)CC2)cc(C(C)(C)C)c1O [CBK261520],77.17
8,CCN1C(=O)/C(=C\NN=C2CCCC2)c2ccc(C3=NNC(=O)CC3)cc21 [CBK263515],118.767
9,CCCS(=O)(=O)NC1CC(C)(C)Cc2c1cnn2-c1ccc(OC)cc1 (stereo not drawn) [CBK306730],95.9097
10,COc1ccc(-c2nc(=S)c3c(n2CCCO)CCCC3)cc1 [CBK027898],127.525
11,Cc1ccc(S(=O)(=O)N2CCN(CCC(=O)O)CC2)cc1C [CBK269416],86.1355
12,O=C(c1ccoc1)N1CCC2(CCCN(Cc3c(F)cccc3F)C2)C1 (stereo not drawn) [CBK132806],75.0983
13,Cc1cc(N2CCN(C(=O)CCc3ccco3)CC2)nc(C(C)C)n1 [CBK305367],113.96
14,CC(NC(=O)n1ccc2c(N3CCNCC3)cccc21)c1ccccc1 (stereo not drawn) [CBK003729C],84.1676
15,Cc1ccc(-n2nnc3c(SCC(=O)Nc4ccc(F)cc4)ncnc32)cc1 [CBK287542],63.0656
16,O=C(O)c1cc(S(=O)(=O)NC(CO)C(O)c2ccc([N+](=O)[O-])cc2)ccc1Br (stereo not drawn) [CBK262515],103.197
17,CCCCN(CCCC)c1nccnc1Cl [CBK001576],89.8183
18,Cc1cc2c(cc3c(=O)n(CC(=O)NC4CCC4)nc(C)n32)s1 [CBK284118],67.2683
19,CC(=O)Nc1ccc(NC(=O)/C=C/c2ccc(Cl)cc2)cc1 [CBK264766],95.0691
20,Cc1cccn2c(CN3CC(O)C3)c(C(=O)N3CCCCC3)nc12 [CBK306662],58.5053
21,O=C(CCc1nc2ccccc2c(=O)[nH]1)N1CCN(Cc2ccc(Cl)s2)CC1 [CBK296937],72.8333
22,Cc1c(C(=O)N(C)Cc2csc3ccccc23)nnn1C1CCNCC1 [CBK304103],17.8552
23,CCC(C)NC(=O)CSc1nnc(-c2cccs2)n1CC (stereo not drawn) [CBK296960],86.0314
24,CN(C)C1=NC(N(C)C)=NP(N(C)C)(N(C)C)=N1 [CBK261057],96.0295
25,CCC1CCCCN1C(=O)c1ccc(C(F)(F)F)cc1 (stereo not drawn) [CBK081165],55.7087
26,O=C(Nc1ccc2oc(-c3cccnc3)nc2c1)c1ccc(N2CCOCC2)c([N+](=O)[O-])c1 [CBK268664],94.1063

row,SMILES,% of control remaining
1,Cc1ccc(CC(=O)N2CCC(Cc3ccccc3-c3ccccc3C)(C(N)=O)CC2)cc1 [CBK285727],94.4043
2,CC(C)c1ccc(C(C)NC(=O)Cn2cccc(C(=O)NC3CCCCC3)c2=O)cc1 (stereo not drawn) [CBK286044],114.302
3,Cc1c(-c2cccc(NC(=O)c3ccccc3)c2)nc2ncccn12 [CBK287504],106.234
4,COc1ccc(C(C)C)cc1-c1nc(N)cc2cccnc12 [CBK081178],84.8222
5,Cc1cccc(-n2ncc3c(NCCCN4CCOCC4)ncnc32)c1 [CBK265710],129.415
6,COc1cc(OC)nc(CN2C(=O)CC3(C2=O)C(=O)N(CCCN(C)C(=O)c2ccco2)c2ccc(F)cc23)n1 (stereo not drawn) [CBK076006],94.3732
7,COc1ccc(-c2ccc(=O)n3c2[C@@H]2C[C@@H](CN(C(=O)NC4CCCCC4)C2)C3)cc1 [CBK289189],106.81
8,O=C(O)CC1SC(Nc2ccc(F)cc2F)=NC1=O (stereo not drawn) [CBK200115],86.1719
9,COc1ccc(N2CC(C(=O)N(C)CC(F)(F)F)CC2=O)cc1 (stereo not drawn) [CBK281510],100.217
10,CC1CCN(Cc2ccc(-c3nnn(CC(=O)NCc4ccc(Cl)cc4Cl)n3)cc2)CC1 [CBK144180C],76.4231
11,Cc1cc(-c2ccc(=O)n(C3CCN(C(=O)C4CC4)CC3)n2)c(C)o1 [CBK284462],110.954
12,c1coc(-c2cn3ccnc3c(Nc3ccc4[nH]ccc4c3)n2)c1 [CBK037361],109.24
13,O=C(Nc1ccc2n(c1=O)C[C@H]1C[C@@H]2CN(C(=O)NC2CCCCC2)C1)c1cnccn1 [CBK289076],72.051
14,CCCc1c(C)nc2c(OC)cccc2c1SCCC(=O)O [CBK263890],92.1567
15,O=S(=O)(c1ccc(Cl)cc1)N1CCN(c2ccccc2)CC1 [CBK067987],95.2033
16,N#Cc1ccc(COc2ccccc2)cc1 [CBK002738],93.6215
17,Cc1nn(C)c2ncc(S(=O)(=O)NC(C)c3ccc(F)cc3)cc12 (stereo not drawn) [CBK305793],102.146
18,CC(C)(C)c1ccc(-c2cnc3nc(N)ccc3c2)cc1 [CBK061888],90.5378
19,O=C(O)C(c1c[nH]c2ccc(OCc3ccccc3)cc12)N1CCCC1 (stereo not drawn) [CBK286686],62.2891
20,Cc1c(C(=O)N2CCCC(c3nc(C)n4ccsc34)C2)cnn1C (stereo not drawn) [CBK284593],99.1408
21,CCOc1cc(C)c(Cl)cc1S(=O)(=O)NCc1ccncc1 [CBK269954],43.6709
22,CC(CC(=O)O)CC(=O)Nc1cccc(C(=O)O)c1 (stereo not drawn) [CBK265651],95.4945
23,Cc1cnn(C)c1CN1CCNC(=O)C1c1ccccc1C(F)(F)F (stereo not drawn) [CBK304260],121.795
24,CCc1ccc(N(CC(=O)NCc2ccccn2)S(C)(=O)=O)cc1 [CBK265322],105.704
25,Nc1nc2c(ccn2[C@@H]2O[C@H](CO)[C@H](O)C2O)c(=O)[nH]1 (stereo partly drawn) [CBK201190],102.814
